# In the supplement of paper PMC10338343:
# ± gives the standard deviation. Over roughly 6,600 sequences, “pre-steady-state target cleavage rate” has its median near 0.07; the highest 2% begin near 0.72. The entries are a selection whose mix differs from that of the whole data set.
# Tested on: MIWI (PIWIL1) piRISC loaded with Kctd7 piRNA (30 nt)
# Experiment: pre-steady-state target cleavage rate (min^-1); MIWI and MILI are mouse PIWI proteins and EfPiwi is from a freshwater sponge; tags in brackets are library labels; higher = faster piRNA-guided slicing of the target
# Conditions: guide: Kctd7 piRNA 5'p-UGUUAAUCUCUCAGAGAAGGUGACAGUGAU; auxiliary factor: 500 nM mouse GTSF1
# Procedure, shortened: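 Sequencing of uncleaved targets, normalised to depth and to weakly complementary targets, was the readout of this Cleave-'n-Seq assay. A transcribed, DNA-blocked target RNA library (0.1 nM) was mixed with 1 nM active affinity-purified piRISC carrying one synthetic guide, with or without 500 nM GTSF1 partner protein, in HEPES–potassium acetate buffer at 33 °C for 0–8 or 0–960 min. Three trials were pooled, k3 was capped at 0.0001 min^-1, and a burst-and-steady-state fit gave the pre-steady-state cleavage rate.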
row,Sequence,pre-steady-state target cleavage rate
1,UUCACUUGUCACCUUCUCUGAGAGAUUAACA,0.63 ± 0.09
2,UACACUGUCACCUUCUCUGCGAGAUUAACA,0.406 ± 0.04
3,UACACUGUCACGUUCUCUGAGAGAAUAACA,0.186 ± 0.033
4,UAGACAGUCACCUUCUCUCAGAGAUUAACA,0.0846 ± 0.0083
5,UAGUGACAGACCUACUCUGAGACAUUAACA,0.00519 ± 0.004
6,UUCACAGUCACCUUGUCUGAGAGAUUAACA,0.273 ± 0.044
7,UAGAGCUGUCACCUUCUCUGAGAGAUUAACA,0.706 ± 0.047
8,UUCACUGUCACGAUCUCUGAGAGAUUAUGA,0.0352 ± 0.011
9,UAGACUGUCACGUUGUCUGAGAGAUUAACA,0.485 ± 0.031
10,AUCACUGUCACGUACUCUGAGAGAUUAACA,0.536 ± 0.045
11,UACUCUGUCACCUUCUCUGAGAGAUAAACA,0.304 ± 0.03
12,AUCACUGUCAGCUUGUCUGAGAGAUUAACA,0.713 ± 0.029
13,AUCACUGUCACCUUCUACUGAGAGAUUAACA,0.264 ± 0.078
14,UAGUCUGUCACCUUCUCUGAGUCUUUAACA,0.00377 ± 0.0028
15,UACACUGUCACCUUCUCUGACGAGAUUAACA,0.0169 ± 0.0072
16,UAGUGACAGUGCUUCUCUGACUCUAAUUGA [g11:g19:cont:t1A],< 0.0001
17,UAGUGACAGUGGAUCUCUGAGGAUUAACA,< 0.0001
18,UACACAGUCACCUUCUCUGAGAGAUUUUGA,0.0801 ± 0.02
19,UAGUGUGUCACCUUCUCUGAUAGAUUAACA,0.574 ± 0.029
20,UAGUGAGUCAGCUUCUCUGAGAGAUUUUGA,0.00552 ± 0.0027
21,AUCACUGUCACCUUCUCUGAGACAUUUACA,0.034 ± 0.011
22,UAGUGACAGACCUUCUCUGAGAGAUCUAACA,0.0341 ± 0.0089
23,UACACUGUCACCUUCUCAGAGAGAUUAAGA,0.0543 ± 0.013
24,UACACUGUCAUCUUCUCUGAGAGAUUAACA,0.694 ± 0.031

row,Sequence,pre-steady-state target cleavage rate
1,UAGUCUGUCAGCUUCUCUGAGAGAUUAUGA,0.0074 ± 0.0033
2,UUCACUGUCACCUACUCUGAGAGAUUUUGA,0.0565 ± 0.015
3,AUCACUGUCACGUUCACUGAGAGAUUAACA,0.44 ± 0.025
4,UAGUGAGUCACCAUCUGUGAGAGAUUAACA,0.347 ± 0.031
5,UUCACUGUCACCUUCUGAGAGAGAUUUUGA,0.067 ± 0.022
6,UAGUGACUGACCAUCUCUGAGAGAUUAACA,0.0536 ± 0.0083
7,UAGUCUGUCACCUACUCUGAGAGAUUUACA,0.331 ± 0.051
8,UAGUGACUCACCUUCUCUGAGAAGAUUAACA,0.00937 ± 0.0034
9,UAGUGACAGUGGAAGAGAGAGAGAUUAAGCA,< 0.0001
10,UAGUGACAGUGCUUCUCUGAGAGAUUAAGA,0.00478 ± 0.0025
11,UAGUGACUCACCUUCUCUGAGAGAUUAUGA,0.106 ± 0.015
12,UAGUGUGUCACCUUCUGUGAGAGUUUAACA,0.124 ± 0.022
13,UAGUGACUGACCUUCUCUGAGAGAUUAUCA,0.215 ± 0.04
14,UAGUGACACACCUUCUCAGAGAGAAUAACA,0.0148 ± 0.0069
15,UAGUGACUCAGCUUCUCAGAGAGAUUAACA,0.0145 ± 0.004
16,UAGUGAGUCACCUUCUCUCACAGAUUAACA,0.00753 ± 0.0042
17,UAGACUGUCACCUUCUGUGAGAGAUUAUCA,0.0739 ± 0.011
18,UAGUCUGUCACCUUCUCUGAGACAUUUACA,0.0397 ± 0.012
19,UAGACUGUCACCUUCUCUCAGAGAUUAAGA,0.0494 ± 0.0095
20,UAGUGUCUCACCUUGUCUGAGAGAUUAACA,0.17 ± 0.031
21,UAGUGAGUCACCUUCUCUGAGAGAUAUAGA,0.045 ± 0.013
22,AUCACUGUCACCUUCUCUGAGAGUAUAAGA,0.019 ± 0.0087
23,UAGUCUGUCACCUUCUCAGAGAGAUUAAGA,0.114 ± 0.034
24,AUCUGUGUCACCUUCUCUGAGAGAUAUUGA,0.0551 ± 0.014

row,Sequence,pre-steady-state target cleavage rate
1,UACACUCUCACGUUCUCUGAGAGAUUAACA,0.422 ± 0.026
2,UACACAGUCACCUUCUCAGAGAGAUUAACA,0.376 ± 0.036
3,UAGUGACACACCUGUCUCUGAGAGAUUAACA,0.192 ± 0.024
4,UAGUGACAGACGUUCUCUGAGAGAUUAACA,0.0155 ± 0.0026
5,UAGUGUGACACCUACUCUGAGAGAUUAACA,0.356 ± 0.026
6,UAGUCUGUCACCAUGUCUGAGAGAUUAACA,0.153 ± 0.011
7,UACACUGUCACCUUGUCUGAGUGAUUAACA,0.0308 ± 0.0062
8,UAGACUGUCAGCUACUCUGAGAGAUUAACA,0.448 ± 0.034
9,UAGUGUGACACCUUCUGUGAGAGAUUAACA,0.364 ± 0.029
10,UAGUCUGUCACCUACUCUGUGAGAUUAACA,0.166 ± 0.011
11,AUCAUUGUCACCUUCUCUGAGAGAUUAACA,0.593 ± 0.028
12,UAGUGACAGUGCUUCUCUGAGAGAUUAACG [g2:g19:cont:t1G],0.0113 ± 0.0021
13,UAGUCUGUGACCUUCUCUGAGAGUUUAACA,0.178 ± 0.026
14,UUCACUGUCACCUUGUCUGAGAGAUUAACA,0.431 ± 0.053
15,AUCUGAGUCACCUUCUCUGAGAGAUUAUGA,0.109 ± 0.023
16,UUCACUGUCACCUACUCUGAGAGAAUAACA,0.29 ± 0.037
17,UAGUCAGUCAGCUUCUCUGAGAGAUUAACA,0.708 ± 0.036
18,UAGUGACAGUGCCUCUCUGAGAGAUUAACA,0.00449 ± 0.0027
19,UAGUGACUCACCUUCUCGGAGAGAUUAACA,0.0757 ± 0.011
20,UACACUGACACCAUCUCUGAGAGAUUAACA,0.521 ± 0.036
21,UAGUGUGACACCUUCUCUGAGAGAUUAUCA,0.175 ± 0.037
22,UUGACUGUCUCCUUCUCUGAGAGAUUAACA,0.746 ± 0.04
23,UAGUGUGUCACCUUCUCUGAGAGAUUAACG [g2:g25:cont:t1G],0.513 ± 0.051
24,UAGUGAGGUCACCUUCUCUGAGAGAUUAACA,0.715 ± 0.036
